Values joined by “and” are separate entries in the source; they are usually repeats but may differ in a detail not shown here. Equal values may be shown once. Where a name gives a salt, the structure may show the parent alone. Whole data set: some 2,000 compounds, median “fractional viability relative to vehicle” near 0.91, cut for the lowest 2% near 0.045. The list shows a part of the results.
Test system: TYKNU
Experiment: fractional viability relative to vehicle; TYKNU is a high-grade serous ovarian cancer line; higher = less growth inhibition
Conditions: 72 h
In short: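 Drug treatment lasted 72 h, with cells grown at 37 °C in 5% CO2 in RPMI 1640 supplemented with 10% FBS. Beforehand, TYKNU control cells or their lentiCRISPRv2 knockout derivatives had been seeded at 500 cells per well into drug-stamped 384-well plates carrying a ~2100-compound library at 2 or 10 μM, in duplicate. Viability came from Cell Titer Glo luminescence, with averaged duplicate treatment wells normalised to duplicate control wells in the same plate position.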

[1] = 2uM, genotype: DNM1L knockout (sgDNM1L #1)
[2] = 2uM, genotype: sgCTRLA1 (non-targeting control)
[3] = 10uM, genotype: DNM1L knockout (sgDNM1L #1)
[4] = 10uM, genotype: sgCTRLA1 (non-targeting control)

Row | Structure (SMILES) | fractional viability [1] | fractional viability [2] | fractional viability [3] | fractional viability [4]
1 | CC(C)(C)c1ccc(-c2nc3ccccc3[nH]2)cc1 | 0.665 | 0.675 | 0.173 | 0.113
2 | COc1ccc(S(=O)(=O)N(C(C)=O)c2ccccc2/C=C/c2cc[n+]([O-])cc2)cc1 | 0.198 | 0.303 | 0.116 | 0.176
3 | Cc1c(F)cc(C(=O)NC2CC2)cc1-c1ccc(C(=O)NCC(C)(C)C)cn1 | 0.773 | 1.12 | 0.747 | 0.928
4 | Cc1cc(C)c(/C=C2\C(=O)Nc3ccccc32)[nH]1 [Semaxanib (SU5416)] | 1.09 | 1.14 | 0.782 | 1.02
5 | CC(C)c1cc(-c2ccc(F)c3ccccc23)nc(N)n1 | 1.01 | 1.07 | 1.02 | 1.21
6 | O=C(NOC[C@H](O)CO)c1ccc(F)c(F)c1Nc1ccc(I)cc1F | 0.353 | 0.349 | 0.211 | 0.232
7 | O=C1CC2(CCCC2)CC(=O)N1CCCCN1CCN(c2ncccn2)CC1 [Buspirone HCl] | 0.95 | 1.14 | 1.08 | 1.14
8 | CC[C@H]1OC(=O)[C@H](C)[C@@H](O[C@H]2C[C@@](C)(OC)[C@@H](O)[C@H](C)O2)[C@H](C)[C@@H](O[C@@H]2O[C@H](C)C[C@H](N(C)C)[C@H]2O)[C@](C)(O)C[C@@H](C)[C@@H]2N[C@@H](COCCOC)O[C@H]([C@H]2C)[C@]1(C)O [Dirithromycin] | 0.963 | 1.15 | 0.711 | 1.09
9 | C[C@H]1C[C@@H]2[C@H]([C@@H](O)C[C@@]3(C)[C@H]2CC[C@]3(O)C(=O)CO)[C@@]2(C)C=CC(=O)C=C12 [Methylprednisolone] | 1.15 | 1.16 | 1.07 | 1.07
10 | O=C1c2ccc(Nc3ccc(F)cc3F)cc2CCc2ccc(OC[C@H](O)CO)cc21 [Skepinone-L] | 0.864 | 1.06 | 0.397 | 0.641
11 | NC(=O)C(c1ccccc1)(c1ccccc1)[C@@H]1CCN(CCc2ccc3c(c2)CCO3)C1 [Darifenacin HBr] | 0.951 | 1.21 | 0.794 | 0.953
12 | CCCNCC(O)COc1ccccc1C(=O)CCc1ccccc1 (centres undefined) [Propafenone HCl] | 1.03 | 1.02 | 0.762 | 0.617
13 | COc1cc([C@@H]2c3cc4c(cc3[C@@H](O[C@@H]3O[C@@H]5CO[C@@H](C)O[C@H]5[C@H](O)[C@H]3O)[C@H]3COC(=O)[C@H]23)OCO4)cc(OC)c1O [Etoposide] | 0.524 | 0.543 | 0.23 | 0.263
14 | CN(C)C(=S)NN=C(c1ccccn1)c1ccccn1 | 0.177 | 0.132 | 0.255 | 0.107
15 | COc1ccccc1OCC(O)CN1CCN(CC(=O)Nc2c(C)cccc2C)CC1 (centres undefined) [Ranolazine 2HCl] | 0.984 | 1.14 | 0.894 | 1.16
16 | COc1ccccc1OCC(O)CN1CCN(CC(=O)Nc2c(C)cccc2C)CC1 (centres undefined) [Ranolazine] | 0.992 | 1.1 | 0.859 | 0.975
17 | Nc1nc2n[nH]nc2c(=O)[nH]1 [Azaguanine-8] | 1.01 | 1.31 | 0.697 | 0.754
18 | CN(C)c1nc(N(C)C)nc(N(C)C)n1 [Altretamine] | 1.05 | 1.07 | 0.977 | 1.03
19 | COc1cc2c(Oc3ccc4[nH]c(C)cc4c3F)ncnc2cc1OCCCN1CCCC1 [Cediranib (AZD2171)] | 0.99 | 0.847 | 0.0461 | 0.0421

Row | Structure (SMILES) | fractional viability [1] | fractional viability [2] | fractional viability [3] | fractional viability [4]
20 | O=C(O)c1cc(-c2ccccc2)nc2ccccc12 [Cinchophen] | 0.777 | 1.12 | 0.728 | 0.907
21 | CC(=O)O[C@]1(C(C)=O)CC[C@H]2[C@@H]3C[C@H](C)C4=CC(=O)CC[C@]4(C)[C@H]3CC[C@@]21C [Medroxyprogesterone acetate] | 1.14 | 1.13 | 0.772 | 1.02
22 | O=S(=O)(O)c1cc(O)ccc1O [Ethamsylate] | 0.83 | 1.2 | 0.799 | 1.02
23 | O=C1C[C@@H](c2ccc(O)cc2)Oc2cc(O)cc(O)c21 [Naringenin] | 0.825 | 1.14 | 0.837 | 1.07
24 | CCC(=O)O[C@]1(C(=O)CCl)[C@@H](C)C[C@H]2[C@@H]3CCC4=CC(=O)C=C[C@]4(C)[C@@]3(F)[C@@H](O)C[C@@]21C [Clobetasol propionate] | 1.17 | 0.996 | 0.689 | 0.883
25 | CCOC(=O)[C@H](CCc1ccccc1)N[C@H]1CS[C@H](c2cccs2)CN(CC(=O)O)C1=O [Temocapril HCl] | 0.889 | 1.23 | 0.83 | 1.04
26 | COc1ccc(F)c(F)c1C(=O)c1cnc(NC2CCN(S(C)(=O)=O)CC2)nc1N | 0.195 | 0.242 | 0.39 | 0.328
27 | CCCCC(F)(F)[C@@]1(O)CC[C@H]2[C@@H](CC(=O)[C@@H]2CCCCCCC(=O)O)O1 [Lubiprostone] | 0.983 | 1.07 | 0.958 | 0.968
28 | COc1ccc(C2CNC(=O)C2)cc1OC1CCCC1 (centres undefined) [Rolipram] | 0.989 | 1.21 | 0.861 | 1.08
29 | O=c1c(O)c(-c2ccc(O)cc2O)oc2cc(O)cc(O)c12 [Morin Hydrate] | 1.02 | 1.01 | 1.01 | 1.13
30 | OC[C@H]1O[C@@H](Oc2cc(O)cc(/C=C/c3ccc(O)cc3)c2)[C@H](O)[C@@H](O)[C@@H]1O [Polydatin] | 1.07 | 1.04 | 0.862 | 1.08
31 | CC(=O)Nc1nc(C)c(-c2ccc(Cl)c(S(=O)(=O)NCCO)c2)s1 | 0.912 | 0.811 | 0.532 | 0.494
32 | Cc1nc(=O)c2cc(CN(C)c3ccc(C(=O)N[C@@H](CCC(=O)O)C(=O)O)s3)ccc2[nH]1 [Raltitrexed] | 0.346 | 0.362 | 0.297 | 0.391
33 | CCCOc1ccn2c(C(C)=O)cc(-c3ccccc3S(C)(=O)=O)c2c1 | 0.858 | 1.12 | 0.736 | 1.1
34 | CC(/C=C1\SC(=S)N(CC(=O)O)C1=O)=C\c1ccccc1 [Epalrestat] | 0.92 | 1.11 | 0.89 | 1.03
35 | O=C1c2ccccc2C(=O)c2c1ccc(O)c2O [Alizarin] | 0.834 | 1.1 | 0.8 | 1.06
36 | O=c1oc2ccccc2c(O)c1Cc1c(O)c2ccccc2oc1=O [Dicoumarol] | 0.874 | 1.12 | 0.829 | 1.13
37 | CS(=O)(=O)N1CCc2c(-c3cnc(N)nc3)nc(N3CCOCC3)nc21 | 0.46 | 0.559 | 0.184 | 0.198
38 | CC(=O)[C@]1(O)Cc2c(O)c3c(c(O)c2[C@@H](O[C@H]2C[C@H](N)[C@H](O)[C@H](C)O2)C1)C(=O)c1ccccc1C3=O [Idarubicin HCl] | 0.362 | 0.165 | 0.042 | 0.021

Row | Structure (SMILES) | fractional viability [1] | fractional viability [2] | fractional viability [3] | fractional viability [4]
39 | CC[C@H](C)C(=O)O[C@H]1CCC=C2C=C[C@H](C)[C@H](CC[C@@H]3C[C@@H](O)CC(=O)O3)[C@H]21 [Mevastatin] | 0.448 | 0.673 | 0.258 | 0.286
40 | Nc1cc(C(Cl)=C(Cl)Cl)c(S(N)(=O)=O)cc1S(N)(=O)=O [Clorsulon] | 0.803 | 1.15 | 0.714 | 1.18
41 | Cc1ccccc1CN1C2=NCCN2C(=O)C2=C1CCN(Cc1ccccc1)C2 [TIC10 Analogue] | 0.814 | 1.06 | 0.67 | 0.91
42 | C[C@H](CCC(=O)O)[C@H]1CC[C@H]2[C@@H]3[C@H](O)C[C@@H]4C[C@H](O)CC[C@]4(C)[C@H]3CC[C@]12C [Chenodeoxycholic Acid] | 0.966 | 1.13 | 0.963 | 0.92
43 | C=CC(=O)Nc1cccc(Oc2nc(Nc3ccc(N4CCN(C)CC4)cc3OC)ncc2Cl)c1 | 0.754 | 0.963 | 0.345 | 0.492
44 | O=C(/C=C/c1ccc(O)c(O)c1)OCCc1ccccc1 [Caffeic Acid Phenethyl Ester] | 0.971 | 0.949 | 0.493 | 0.467
45 | CC(C)CC(CC(=O)NO)C(=O)N[C@@H](Cc1ccc2ccccc2c1)C(=O)N[C@@H](C)C(=O)NCCN (some centres undefined) | 0.816 | 0.895 | 0.788 | 0.647
46 | COc1ccc([C@@H]2CC(=O)c3c(O)cc(O[C@@H]4O[C@H](CO)[C@@H](O)[C@H](O)[C@H]4O[C@@H]4O[C@@H](C)[C@H](O)[C@@H](O)[C@H]4O)cc3O2)cc1O [Neohesperidin] | 0.979 | 1.12 | 0.768 | 1.01
47 | CC(=O)OCC(CCn1cnc2cnc(N)nc21)COC(C)=O [Famciclovir] | 0.976 | 1.12 | 0.716 | 1.09
48 | C[C@@H]1CCN(C(=O)CC#N)C[C@@H]1N(C)c1ncnc2[nH]ccc12 | 0.918 and 1.15 | 1.15 and 1.27 | 0.956 and 0.862 | 1.1 and 1.2
49 | C#CC[C@H](c1nc2cc(Cl)ccc2c(=O)n1Nc1ccccc1)N(CCCN)C(=O)c1cccc(Cl)c1F | 0.249 | 0.25 | 0.0262 | 0.0115
50 | CCOC(=O)Nc1cc(-c2ccc(C)c(NS(C)(=O)=O)c2)nn2c(C)nnc12 [Bromosporine] | 0.604 | 0.985 | 0.235 | 0.197
51 | Cc1cc2c(F)c(Oc3ncnn4cc(OC[C@@H](C)OC(=O)[C@H](C)N)c(C)c34)ccc2[nH]1 | 0.797 | 0.89 | 0.458 | 0.444
52 | O=S(=O)(O)NC1CCCCC1 [Cyclamic  acid] | 1.04 | 1.15 | 0.844 | 1.1
53 | COc1ccc([C@]2(C#N)CC[C@@H](C(=O)O)CC2)cc1OC1CCCC1 [Cilomilast] | 0.977 | 1.1 | 0.843 | 1.15
54 | COCC[n+]1c2c(n(Cc3cnccn3)c1C)C(=O)c1ccccc1C2=O [YM155 (Sepantronium Bromide)] | 0.0411 | 0.0393 | 0.0214 | 0.0241
55 | O=C(NCCO)c1cccc(-c2cc(Nc3ccc(OC(F)(F)F)cc3)ncn2)c1 | 0.807 | 1 | 0.555 | 0.573
56 | Nc1ccn([C@H]2CC[C@@H](CO)O2)c(=O)n1 [Zalcitabine] | 0.987 | 1.07 | 0.928 | 1.07
